# Data published in PubChem BioAssay AID624296 (National Center for Advancing Translational Sciences (NCATS), 2012).
# In all, about 350,000 compounds went through this assay and about 9,900 (2.8%) were called active. Inconclusive results, whose numbers are uncertain, are shown with a selection of clear calls. Calls follow the shape of the dose curve; as a rule, active = well fitted activation curve with a large enough effect; inconclusive = small, poorly fitted or top-dose-only effect; inactive = no such curve, though single readings can be large or run the other way. Potencies of inconclusive entries are left out as doubtful fits.
# Assay: A quantitative high throughput screen for small molecules that induce DNA re-replication in MCF 10a normal breast cells. Also: nearly all actives have a fitted effect of over 50% in size. As to activity, positive = re-replication: % of control where 0% means no effect.
# Conditions: MCF 10A DNA re-replication, Hoechst nuclear intensity, 48 h; activity, positive = re-replication: at 46.1 µM (top of the series)
# Potency is read from the fitted curve at half-maximal effect; tags tell the direction and shape of the fitted curve.
Structure (SMILES),Potency,"activity, positive = re-replication"
Cc1ccc(-c2[nH]ncc2CNCCc2cnn(-c3ccccc3)c2)cc1C,"inconclusive [activator, partial curve, poor fit]",–
Cc1csc(NC(=O)CSc2nc3ccccc3c3c2CCCC3)n1,"inconclusive [activator, full curve, poor fit]",–
Cc1ccc(O)c(NC(=O)c2noc3c2CCc2ccccc2-3)c1,"inconclusive [activator, single point]",–
Cc1nc(SCC(=O)N2CCOCC2)c2c(C)c(C)sc2n1,inactive,–
Cc1nc(-c2ccccn2)nc(SCC(=O)c2ccccc2)c1Cl,"inconclusive [activator, single point]",–
CCc1c(C)sc(NC(=O)/C=C/c2ccc3c(c2)OCO3)c1C(=O)OC,active: 5.8 µM,–
Cc1ccccc1N=C1c2cc([N+](=O)[O-])ccc2-c2ncccc21,"inconclusive [activator, single point]",–
Cn1nc(C(=O)NNC(=O)C(CCC(N)=O)NS(=O)(=O)c2ccc(Cl)cc2)c2ccccc2c1=O (configuration not stated),inactive,–
COC(=O)C1=C(C)Nc2sc(C(N)=O)c(N)c2C1c1ccncc1 (configuration not stated),"inconclusive [activator, single point]",–
O=C(c1ccc(OC2CCN(CCCc3ccccc3)CC2)cc1)N1CCCC1,inactive,–
CCn1c2ccccc2c2cc(Nc3cc(C)nc4ncnn34)ccc21,–,inconclusive: 129% [activator]
C=CCn1c(SCC(=O)N2CCCCCC2)nc2ccccc2c1=O,"inconclusive [activator, partial curve, poor fit]",–
COCCNC(=O)/C(C#N)=C/c1cc(C)n(C2CCCCC2)c1C,inactive,–
COc1cc(/C=C(/C#N)c2ccccc2F)ccc1OCc1ccccc1,"inconclusive [activator, single point]",–
CC(O)c1n(C)c(Cl)c[n+]1C (configuration not stated),inactive,–
CS(=O)(=O)c1cnc(-c2ccccc2)nc1-c1ccc(Cl)c(Cl)c1,"inconclusive [activator, full curve, poor fit]",–
Cc1ccc(O)c(C(=O)CC(=O)c2cccc(F)c2)c1,"inconclusive [activator, partial curve, poor fit]",–
COc1ccccc1C(=O)Nc1ccc2oc(-c3ccc(F)cc3)nc2c1,"inconclusive [activator, full curve, poor fit]",–
O=C1CN(C(=O)c2ccc(Cl)nc2)c2ccccc2N1,"inconclusive [activator, single point]",–
O=C(/C=C/c1ccc2c(c1)OCCO2)c1ccccc1,"inconclusive [activator, single point]",–
COc1ccc(-c2csc(NC(=S)NC(=O)c3ccco3)n2)cc1Br,"inconclusive [activator, partial curve]",–
CCN(C(=O)COC(=O)c1ccc(Cl)c(N)c1)C1CCS(=O)(=O)C1 (configuration not stated),inactive,–
O=c1[nH]c(C2CCN(S(=O)(=O)/C=C/c3ccccc3)CC2)nc2c1nnn2Cc1ccc(F)cc1,inactive,–
CCOc1ccc(N=C2SCCCN2C(=O)c2c(CC)noc2C)cc1,inactive,–

Structure (SMILES),Potency,"activity, positive = re-replication"
CC(=O)c1ccccc1NC(=O)COC(=O)CCC1CCCC1,inactive,–
CC(C)(C)C1CCc2c(sc3ncn(N)c(=N)c23)C1 (configuration not stated),"inconclusive [activator, partial curve, poor fit]",–
Cc1nc2ccccc2n1/N=C/c1ccc([N+](=O)[O-])o1,inactive,–
CC(C)=CC(=O)Nc1nnc(C)s1,"inconclusive [activator, full curve]",–
Clc1ccc(SCCCCN2CCOCC2)cc1,"inconclusive [activator, partial curve, poor fit]",–
COc1ccc(/C=N\NC(=O)C2COc3ccccc3O2)cc1O (configuration not stated),"inconclusive [activator, single point]",–
CCN(CC)S(=O)(=O)c1cc(C(=O)Nc2nncs2)c(Cl)cc1Cl,"inconclusive [activator, single point]",–
Cc1cccc(C)c1NC(=O)CNC(=O)c1ccccc1,"inconclusive [activator, partial curve, poor fit]",–
Cc1ccccc1Cn1nnc2c1C(=O)c1ccccc1C2=O,inactive,–
CC(=O)c1c(N2CCOCC2)nc(=S)n(Cc2ccccc2)c1C,inactive,–
COC(=O)c1cc(NC(=S)NCc2ccc(Cl)cc2)cc(C(=O)OC)c1,"inconclusive [activator, single point]",–
COc1ccc(CNC(=O)CCS(=O)(=O)c2cc3c(cc2Cl)NC(=O)CO3)cc1,inactive,–
Cc1ccc(CN=Cc2[nH]c3ccc(Br)c(Cl)c3c2O)cc1,inactive,–
C=C1C(=O)OC2C1CCC(C)C1C=CC(=O)C12C (configuration not stated),active: 2.06 µM,–
Cc1c(CCC(=O)N[C@@H](CC(C)C)C(=O)O)c(=O)oc2c(C)c3oc4c(c3cc12)CCCC4,"inconclusive [activator, partial curve, poor fit]",–
O=C(CC(NC(=O)c1ccccc1Cl)c1ccccc1)NCCc1ccc(Cl)cc1 (configuration not stated),inactive,–
CC(NC(=O)COC(=O)C1CCCCC1)c1ccccc1 (configuration not stated),inactive,–
CC(C)Sc1nc(N)c2c3c(sc2n1)CN(C)CC3,"inconclusive [activator, partial curve, poor fit]",–
CCCCOc1ccc(/C=C/C(=O)OCC(=O)N2CC(=O)Nc3ccccc32)cc1OCC,"inconclusive [activator, single point]",–
COc1ccc(/C=C2\SC(=S)N(CCC(=O)NC3=NCCS3)C2=O)cc1OC,inactive,–
O=C1C2C3C=CC(C3)C2C(=O)N1CCCCN1C(=O)C2C3C=CC(C3)C2C1=O (configuration not stated),"inconclusive [activator, partial curve, poor fit]",–
CCOC(=O)N1CCN(c2ccnc3cc(Cl)ccc23)CC1,"inconclusive [activator, single point]",–
Oc1cccc(/C=N/Nc2cc(N3CCCC3)nc(N3CCCC3)n2)c1,"inconclusive [activator, single point]",–
O=C(NNS(=O)(=O)c1ccccc1)C1CC(c2cccnc2)=NO1 (configuration not stated),"inconclusive [activator, partial curve, poor fit]",–

Structure (SMILES),Potency,"activity, positive = re-replication"
Cc1cc(SCc2ccc(Cl)c(Cl)c2)nc(=O)[nH]1,inactive,–
Cc1cc(SCC(=O)NC2CCCCC2)nc2ccccc12,"inconclusive [activator, single point]",–
O=c1cc(C(F)(F)F)oc2c1ccc1ccccc12,inactive,–
Cc1ccc(S(=O)(=O)NC(CC(C)C)C(=O)NCCCn2nc(C)cc2C)cc1 (configuration not stated),inactive,–
C/C(=N\NC(=O)c1cc(-c2cccnc2)nc2ccccc12)c1ccc(O)cc1O,"inconclusive [activator, full curve]",–
CCOC(=O)c1c(-c2ccccc2)csc1NC(=O)CSc1nnnn1C,"inconclusive [activator, partial curve]",–
COc1ccccc1Cn1c(=S)[nH]c2cc(C(=O)N3CCN(c4ccccc4OC)CC3)ccc2c1=O,inactive,–
COC(=O)Oc1ccc(/C=N/NC(=O)CSCc2ccc(Cl)cc2)cc1OC,"inconclusive [activator, single point]",–
COc1ccccc1N1CCN(C(=O)c2cc(-c3ccccc3)on2)CC1,"inconclusive [activator, single point]",–
CCOc1ccc(NC(=O)CN(C)C(=O)c2cc(-c3ccc(OC)cc3)nc3ccccc23)cc1OCC,active: 16.4 µM,–
Cc1ccc(S(=O)(=O)/N=C2\C=C(NS(=O)(=O)c3ccccc3)C(=O)c3ccccc32)c(C)c1,"inconclusive [activator, single point]",–
CCOC(=O)/C(=N/Nc1ccc(C)cc1)S(=O)(=O)c1ccc(Cl)cc1,"inconclusive [activator, single point]",–
COC(=O)c1cc(NC(=O)Cc2ccc(OC)c(OC)c2)cc(C(=O)OC)c1,"inconclusive [activator, single point]",–
COc1ccc(-c2nc(-c3ccccc3OC)no2)cc1OC,"inconclusive [activator, partial curve, poor fit]",–
CC(=O)NC(=S)Nc1ccccc1N1CCN(C(=O)c2ccccc2)CC1,inactive,–
Cc1ccccc1OCC(=O)Nc1ccc2c(c1)n(C)c(=O)n2C,inactive,–
Cc1ccc(-c2csc(/C=C3/SC(C)C(=O)N3CC(=O)Nc3ccccc3F)n2)cc1 (configuration not stated),active: 20.6 µM,–
Cc1nc(S/C(=C/c2ccc(OCc3ccc(C(=O)O)cc3)cc2)C(=O)O)n[nH]1,inactive,–
CCOc1ccc2nc(/N=C/c3c(C)[nH]n(-c4ccccc4)c3=O)sc2c1,inactive,–
CCn1ncc(C2=NOC(C(=O)NCc3ccc(Cl)cc3)C2)c1C (configuration not stated),"inconclusive [activator, partial curve, poor fit]",–
COC(=O)c1ccc(-c2c(-c3ccccc3)ncc3cc(F)ccc23)cc1,"inconclusive [activator, partial curve, poor fit]",–
CN1CCN(C(=O)c2cc(COc3c(F)cccc3F)on2)CC1c1ccccc1 (configuration not stated),inactive,–
O=C(COc1ccc(Br)cc1)c1ccc2c(c1)CCCC2,"inconclusive [activator, single point]",–
CO/N=C/c1ccc(N2CCN(C(=O)c3cccc(C(F)(F)F)c3)CC2)c([N+](=O)[O-])c1,inactive,–
